Assay [1] addresses FIH-IκBβ oxomer (FIH-V5 with IκBβ-FLAG) (UniProt Q9NWT6). Put plainly: co-IP; IκBβ-FLAG expressed in HEK293 cells alone or with FIH-V5; immunoprecipitated with anti-V5 or anti-FLAG antibodies, immunoblot. For orientation: Immunoblotting shows a protein as a band on a membrane.
In assay [2] the target is T1, NF-κB inhibitor β (IκBβ), FLAG-tagged (IκBβ-FLAG) (human) (UniProt Q15653).
T1 sequence: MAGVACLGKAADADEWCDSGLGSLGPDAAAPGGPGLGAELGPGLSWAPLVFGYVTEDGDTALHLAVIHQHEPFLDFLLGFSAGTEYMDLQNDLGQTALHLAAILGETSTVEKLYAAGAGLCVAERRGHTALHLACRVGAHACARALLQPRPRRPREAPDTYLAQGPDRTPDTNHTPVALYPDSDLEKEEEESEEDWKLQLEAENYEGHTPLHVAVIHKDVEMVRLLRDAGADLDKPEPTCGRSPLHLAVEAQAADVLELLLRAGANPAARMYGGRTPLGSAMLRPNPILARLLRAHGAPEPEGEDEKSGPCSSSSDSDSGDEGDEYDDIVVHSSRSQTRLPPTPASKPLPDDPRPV
The description is as above.

Protein sequences, listed by entry. Tags and fused reporters are not part of them.
UniProt Q9NWT6: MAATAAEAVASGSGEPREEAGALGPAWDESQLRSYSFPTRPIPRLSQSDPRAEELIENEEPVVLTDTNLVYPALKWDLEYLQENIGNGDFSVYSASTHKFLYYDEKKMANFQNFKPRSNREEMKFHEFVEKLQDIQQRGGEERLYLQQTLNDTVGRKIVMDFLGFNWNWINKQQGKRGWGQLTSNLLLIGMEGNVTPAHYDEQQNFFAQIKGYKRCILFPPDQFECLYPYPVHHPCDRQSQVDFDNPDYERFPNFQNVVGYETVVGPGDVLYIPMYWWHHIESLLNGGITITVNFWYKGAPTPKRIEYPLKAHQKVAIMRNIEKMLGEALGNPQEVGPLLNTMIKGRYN
UniProt Q04206: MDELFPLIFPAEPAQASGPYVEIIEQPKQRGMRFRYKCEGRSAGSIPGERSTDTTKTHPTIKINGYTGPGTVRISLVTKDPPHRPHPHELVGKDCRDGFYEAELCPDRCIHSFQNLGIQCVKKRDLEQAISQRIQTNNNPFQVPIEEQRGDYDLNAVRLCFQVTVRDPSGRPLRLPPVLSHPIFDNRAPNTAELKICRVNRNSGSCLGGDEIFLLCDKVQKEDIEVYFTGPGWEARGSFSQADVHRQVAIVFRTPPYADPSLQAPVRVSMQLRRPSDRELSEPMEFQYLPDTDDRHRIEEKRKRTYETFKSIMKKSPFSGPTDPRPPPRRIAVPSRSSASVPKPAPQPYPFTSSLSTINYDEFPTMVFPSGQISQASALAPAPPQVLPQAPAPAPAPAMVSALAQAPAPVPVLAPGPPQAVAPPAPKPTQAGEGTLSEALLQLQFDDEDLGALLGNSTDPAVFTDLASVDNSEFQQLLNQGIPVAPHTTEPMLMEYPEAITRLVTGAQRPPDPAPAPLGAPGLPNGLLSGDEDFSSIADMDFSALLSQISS
UniProt P19838: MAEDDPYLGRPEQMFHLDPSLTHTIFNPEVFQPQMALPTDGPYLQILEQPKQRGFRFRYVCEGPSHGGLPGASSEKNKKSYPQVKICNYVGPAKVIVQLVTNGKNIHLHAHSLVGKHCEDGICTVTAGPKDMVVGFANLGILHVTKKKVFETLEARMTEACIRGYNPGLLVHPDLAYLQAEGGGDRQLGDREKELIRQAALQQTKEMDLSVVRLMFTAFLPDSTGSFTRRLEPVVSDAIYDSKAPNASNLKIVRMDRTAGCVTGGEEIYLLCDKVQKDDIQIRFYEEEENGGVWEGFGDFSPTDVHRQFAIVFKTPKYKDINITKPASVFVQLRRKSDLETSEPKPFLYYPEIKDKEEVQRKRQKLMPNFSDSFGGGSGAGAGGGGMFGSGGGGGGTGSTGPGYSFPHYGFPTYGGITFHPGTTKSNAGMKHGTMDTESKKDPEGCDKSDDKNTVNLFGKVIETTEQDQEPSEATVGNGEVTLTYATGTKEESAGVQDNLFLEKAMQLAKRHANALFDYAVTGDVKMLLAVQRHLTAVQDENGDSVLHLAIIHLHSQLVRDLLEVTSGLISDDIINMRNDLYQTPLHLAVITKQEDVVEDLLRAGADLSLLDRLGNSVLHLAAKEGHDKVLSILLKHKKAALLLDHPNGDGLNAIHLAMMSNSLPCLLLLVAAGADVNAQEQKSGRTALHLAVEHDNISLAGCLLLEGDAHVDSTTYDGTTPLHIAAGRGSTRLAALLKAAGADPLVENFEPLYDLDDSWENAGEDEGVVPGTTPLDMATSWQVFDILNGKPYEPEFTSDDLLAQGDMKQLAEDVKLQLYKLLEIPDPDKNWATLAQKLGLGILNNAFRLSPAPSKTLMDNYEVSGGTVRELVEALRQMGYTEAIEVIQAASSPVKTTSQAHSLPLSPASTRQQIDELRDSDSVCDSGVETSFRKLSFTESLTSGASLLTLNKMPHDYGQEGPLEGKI
UniProt P22314: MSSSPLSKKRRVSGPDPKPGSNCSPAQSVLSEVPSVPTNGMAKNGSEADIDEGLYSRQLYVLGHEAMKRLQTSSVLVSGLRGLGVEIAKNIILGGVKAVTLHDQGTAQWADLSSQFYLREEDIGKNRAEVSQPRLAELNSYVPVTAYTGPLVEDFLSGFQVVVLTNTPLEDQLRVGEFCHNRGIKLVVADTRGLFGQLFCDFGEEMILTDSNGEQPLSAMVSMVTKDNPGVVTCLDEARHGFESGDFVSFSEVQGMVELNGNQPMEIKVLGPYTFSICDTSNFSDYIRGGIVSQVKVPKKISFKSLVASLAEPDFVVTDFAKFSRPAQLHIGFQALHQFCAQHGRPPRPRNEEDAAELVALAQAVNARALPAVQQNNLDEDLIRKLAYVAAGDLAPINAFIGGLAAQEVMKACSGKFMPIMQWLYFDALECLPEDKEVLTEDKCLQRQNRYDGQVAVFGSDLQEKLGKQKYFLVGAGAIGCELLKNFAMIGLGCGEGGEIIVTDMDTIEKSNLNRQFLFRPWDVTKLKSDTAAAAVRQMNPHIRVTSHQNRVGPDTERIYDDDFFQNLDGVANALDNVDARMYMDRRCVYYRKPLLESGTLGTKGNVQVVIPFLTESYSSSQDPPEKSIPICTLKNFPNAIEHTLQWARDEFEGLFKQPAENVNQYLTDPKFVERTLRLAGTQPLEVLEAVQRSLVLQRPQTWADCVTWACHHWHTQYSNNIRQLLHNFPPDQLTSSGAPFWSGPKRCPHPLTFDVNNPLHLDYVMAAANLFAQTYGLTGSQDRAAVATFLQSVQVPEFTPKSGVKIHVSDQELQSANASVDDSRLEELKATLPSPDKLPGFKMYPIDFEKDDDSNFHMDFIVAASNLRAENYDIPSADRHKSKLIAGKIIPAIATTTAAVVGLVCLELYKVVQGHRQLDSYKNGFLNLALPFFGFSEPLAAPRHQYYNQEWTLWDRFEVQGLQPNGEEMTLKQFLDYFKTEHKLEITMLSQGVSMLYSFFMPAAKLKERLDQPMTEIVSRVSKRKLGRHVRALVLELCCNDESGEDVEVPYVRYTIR

Assay [3] concerns the target factor inhibiting HIF (FIH), V5-tagged (FIH-V5) (UniProt Q9NWT6). Put plainly: immunoblot of a denaturation-resistant (SDS-PAGE) complex; HEK293 cells transiently co-transfected, normoxia; complex seen at the summed molecular weight; also with FG-4592 (0.1 mM), DM-NOFD (1 mM) or MG132 (10 μM), and with lysates treated with DTT or β-mercaptoethanol, 5 min at 95 °C; shows only complexes that resist denaturation.

Assay [4] has the same target. Put plainly: immunoblot of a denaturation-resistant (SDS-PAGE) complex; ectopic co-expression of UBA1 with FIH; cells not stated (Figure S2).

From publication PMC11110689 come the findings set out here.

Results are given in words; binding and its absence hold for the method and conditions named. For some of these results: In cells and extracts the contact can be indirect. Some results given as binding are weak or reduced against the parent protein; the word gives no strength. For some of these results: Where a sequence is shown, tags or fusion partners need not be part of it.

For “NF-κB subunit p65 (from UniProt Q04206 1-551)”, the binding entry in assay [1] is “no binding”; in assay [2], “binds”. For the substance p105 (from UniProt P19838 1-968), the binding result in assay [3] is on record as “no binding”. “ubiquitin-like modifier-activating enzyme 1 (UBA1) (from UniProt P22314 1-1058)”: the binding entry in assay [4] was “binds”.
